Measured values reported in the supplement of paper PMC8728848.
The list shows a part of the results.

What was measured:
Assay in all cases: glycan array binding signal (z-score within array); higher = stronger binding
Conditions in all cases: glycan notation: IUPAC condensed, linker removed
Fuc(a1-2)Gal = biological target: Fuc(a1-2)Gal
In short: (§1)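 The binding signal is a Z-score computed within each array and averaged over linkers. Arrays of the same protein sequence at different concentrations or buffers were also averaged together. Data originate from 3228 arrays in the Consortium for Functional Glycomics database, kept only where the protein sequence was available.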

Fuc(a1-2)Gal(b1-3)GalNAc = biological target: Fuc(a1-2)Gal(b1-3)GalNAc
In short: as §1

[1] = biological target: Fuc(a1-2)Gal(b1-3)GalNAc(a1-3)[Fuc(a1-2)]Gal(b1-4)Glc
In short: as §1

[2] = biological target: Fuc(a1-2)Gal(b1-3)GalNAc(a1-3)[Fuc(a1-2)]Gal(b1-4)GlcNAc
In short: as §1

[3] = biological target: Fuc(a1-2)Gal(b1-3)GalNAc(b1-3)Gal
In short: as §1

[4] = biological target: Fuc(a1-2)Gal(b1-3)GalNAc(b1-3)Gal(a1-4)Gal(b1-4)Glc
In short: as §1

[5] = biological target: Fuc(a1-2)Gal(b1-3)GalNAc(b1-4)[Neu5Ac(a2-3)]Gal(b1-4)Glc
In short: as §1

Fuc(a1-2)Gal(b1-3)GlcNAc = biological target: Fuc(a1-2)Gal(b1-3)GlcNAc
In short: as §1

[6] = biological target: Fuc(a1-2)Gal(b1-3)GlcNAc(b1-2)Man(a1-3)[Fuc(a1-2)Gal(b1-3)GlcNAc(b1-2)Man(a1-6)]Man(b1-4)GlcNAc(b1-4)GlcNAc
In short: as §1

[7] = biological target: Fuc(a1-2)Gal(b1-3)GlcNAc(b1-3)Gal(b1-4)Glc
In short: as §1

[8] = biological target: Fuc(a1-2)Gal(b1-3)GlcNAc(b1-3)[Fuc(a1-3)[Gal(b1-4)]GlcNAc(b1-6)]Gal(b1-4)Glc
In short: as §1

[9] = biological target: Fuc(a1-2)Gal(b1-3)[Fuc(a1-4)]GlcNAc
In short: as §1

[10] = biological target: Fuc(a1-2)Gal(b1-3)[Fuc(a1-4)]GlcNAc(b1-2)Man(a1-3)[Fuc(a1-2)Gal(b1-3)[Fuc(a1-4)]GlcNAc(b1-2)Man(a1-6)]Man(b1-4)GlcNAc(b1-4)GlcNAc
In short: as §1

[11] = biological target: Fuc(a1-2)Gal(b1-3)[Fuc(a1-4)]GlcNAc(b1-3)[Fuc(a1-3)[Gal(b1-4)]GlcNAc(b1-6)]Gal(b1-4)Glc
In short: as §1

[12] = biological target: Fuc(a1-2)Gal(b1-3)[Fuc(a1-4)]GlcNAc(b1-3)[Gal(b1-4)GlcNAc(b1-6)]Gal(b1-4)Glc
In short: as §1

Fuc(a1-2)Gal(b1-4)Glc = biological target: Fuc(a1-2)Gal(b1-4)Glc
In short: as §1

Fuc(a1-2)Gal(b1-4)Glc6S = biological target: Fuc(a1-2)Gal(b1-4)Glc6S
In short: as §1

Fuc(a1-2)Gal(b1-4)GlcNAc = biological target: Fuc(a1-2)Gal(b1-4)GlcNAc
In short: as §1

[13] = biological target: Fuc(a1-2)Gal(b1-4)GlcNAc(b1-2)Man(a1-3)[Fuc(a1-2)Gal(b1-4)GlcNAc(b1-2)Man(a1-6)]Man(b1-4)GlcNAc(b1-4)GlcNAc
In short: as §1

[14] = biological target: Fuc(a1-2)Gal(b1-4)GlcNAc(b1-3)Gal(b1-4)GlcNAc
In short: as §1

[15] = biological target: Fuc(a1-2)Gal(b1-4)GlcNAc(b1-3)Gal(b1-4)GlcNAc(b1-3)Gal(b1-4)GlcNAc
In short: as §1

[16] = biological target: Fuc(a1-2)Gal(b1-4)GlcNAc(b1-3)GalNAc
In short: as §1

[17] = biological target: Fuc(a1-2)Gal(b1-4)GlcNAc6S
In short: as §1

[18] = biological target: Fuc(a1-2)Gal(b1-4)[Fuc(a1-3)]GlcNAc
In short: as §1

[19] = biological target: Fuc(a1-2)Gal(b1-4)[Fuc(a1-3)]GlcNAc(b1-2)Man(a1-3)[Fuc(a1-2)Gal(b1-4)[Fuc(a1-3)]GlcNAc(b1-2)Man(a1-6)]Man(b1-4)GlcNAc(b1-4)GlcNAc
In short: as §1

[20] = biological target: Fuc(a1-2)Gal(b1-4)[Fuc(a1-3)]GlcNAc(b1-3)Gal(b1-4)[Fuc(a1-3)]GlcNAc
In short: as §1

[21] = biological target: Fuc(a1-2)Gal(b1-4)[Fuc(a1-3)]GlcNAc(b1-3)Gal(b1-4)[Fuc(a1-3)]GlcNAc(b1-3)Gal(b1-4)[Fuc(a1-3)]GlcNAc
In short: as §1

Fuc(a1-2)Gal6S(b1-4)Glc = biological target: Fuc(a1-2)Gal6S(b1-4)Glc
In short: as §1

[22] = biological target: Fuc(a1-2)Gal6S(b1-4)Glc6S
In short: as §1

[23] = biological target: Fuc(a1-2)Gal6S(b1-4)GlcNAc
In short: as §1

Fuc(a1-2)[Gal(a1-3)]Gal = biological target: Fuc(a1-2)[Gal(a1-3)]Gal
In short: as §1

[24] = biological target: Fuc(a1-2)[Gal(a1-3)]Gal(b1-3)GlcNAc
In short: as §1

[25] = biological target: Fuc(a1-2)[Gal(a1-3)]Gal(b1-3)GlcNAc(b1-2)Man(a1-3)[Fuc(a1-2)[Gal(a1-3)]Gal(b1-3)GlcNAc(b1-2)Man(a1-6)]Man(b1-4)GlcNAc(b1-4)GlcNAc
In short: as §1

[26] = biological target: Fuc(a1-2)[Gal(a1-3)]Gal(b1-4)Glc
In short: as §1

[27] = biological target: Fuc(a1-2)[Gal(a1-3)]Gal(b1-4)GlcNAc
In short: as §1

[28] = biological target: Fuc(a1-2)[Gal(a1-3)]Gal(b1-4)GlcNAc(b1-2)Man(a1-3)[Fuc(a1-2)[Gal(a1-3)]Gal(b1-4)GlcNAc(b1-2)Man(a1-6)]Man(b1-4)GlcNAc(b1-4)GlcNAc
In short: as §1

[29] = biological target: Fuc(a1-2)[Gal(a1-3)]Gal(b1-4)[Fuc(a1-3)]GlcNAc
In short: as §1

[30] = biological target: Fuc(a1-2)[Gal(a1-4)]Gal(b1-4)GlcNAc
In short: as §1

[31] = biological target: Fuc(a1-2)[GalNAc(a1-3)]Gal
In short: as §1

[32] = biological target: Fuc(a1-2)[GalNAc(a1-3)]Gal(b1-3)GalNAc(a1-3)[Fuc(a1-2)]Gal(b1-4)GlcNAc
In short: as §1

[33] = biological target: Fuc(a1-2)[GalNAc(a1-3)]Gal(b1-3)GlcNAc
In short: as §1

[34] = biological target: Fuc(a1-2)[GalNAc(a1-3)]Gal(b1-3)GlcNAc(b1-2)Man(a1-3)[Fuc(a1-2)[GalNAc(a1-3)]Gal(b1-3)GlcNAc(b1-2)Man(a1-6)]Man(b1-4)GlcNAc(b1-4)GlcNAc
In short: as §1

[35] = biological target: Fuc(a1-2)[GalNAc(a1-3)]Gal(b1-4)Glc
In short: as §1

[36] = biological target: Fuc(a1-2)[GalNAc(a1-3)]Gal(b1-4)GlcNAc
In short: as §1

[37] = biological target: Fuc(a1-2)[GalNAc(a1-3)]Gal(b1-4)GlcNAc(b1-2)Man(a1-3)[Fuc(a1-2)[GalNAc(a1-3)]Gal(b1-4)GlcNAc(b1-2)Man(a1-6)]Man(b1-4)GlcNAc(b1-4)GlcNAc
In short: as §1

[38] = biological target: Fuc(a1-2)[GalNAc(a1-3)]Gal(b1-4)GlcNAc(b1-3)Gal(b1-4)GlcNAc
In short: as §1

[39] = biological target: Fuc(a1-2)[GalNAc(a1-3)]Gal(b1-4)GlcNAc(b1-3)Gal(b1-4)GlcNAc(b1-3)Gal(b1-4)GlcNAc
In short: as §1

[40] = biological target: Fuc(a1-2)[GalNAc(a1-3)]Gal(b1-4)[Fuc(a1-3)]GlcNAc
In short: as §1

[41] = biological target: Fuc(a1-2)[GalNAc(a1-4)]Gal(b1-4)GlcNAc
In short: as §1

[42] = biological target: Fuc(a1-2)[GalNAc(b1-3)]Gal
In short: as §1

Fuc(a1-3)GlcNAc = biological target: Fuc(a1-3)GlcNAc
In short: as §1

[43] = biological target: Fuc(a1-3)[Gal(b1-4)]Glc6S
In short: as §1

[44] = biological target: Fuc(a1-3)[Gal(b1-4)]GlcNAc
In short: as §1

[45] = biological target: Fuc(a1-3)[Gal(b1-4)]GlcNAc(b1-2)Man(a1-3)[Fuc(a1-3)[Gal(b1-4)]GlcNAc(b1-2)Man(a1-6)]Man(b1-4)GlcNAc(b1-4)GlcNAc
In short: as §1

[46] = biological target: Fuc(a1-3)[Gal(b1-4)]GlcNAc(b1-3)Gal(b1-3)[Fuc(a1-4)]GlcNAc
In short: as §1

[47] = biological target: Fuc(a1-3)[Gal(b1-4)]GlcNAc(b1-3)GalNAc
In short: as §1

[48] = biological target: Fuc(a1-3)[Gal(b1-4)]GlcNAc(b1-4)Gal(b1-4)[Fuc(a1-3)]GlcNAc
In short: as §1

[49] = biological target: Fuc(a1-3)[Gal(b1-4)]GlcNAc(b1-4)Gal(b1-4)[Fuc(a1-3)]GlcNAc(b1-4)Gal(b1-4)[Fuc(a1-3)]GlcNAc
In short: as §1

[50] = biological target: Fuc(a1-3)[Gal(b1-4)]GlcNAc(b1-6)[Gal(b1-3)GlcNAc(b1-3)]Gal(b1-4)Glc
In short: as §1

[51] = biological target: Fuc(a1-3)[Gal(b1-4)]GlcNAc6S
In short: as §1

B1: CTLY 1 (Homo sapiens), Q6ZS10 (protein)
chain: AITCPEGWLPFEGKCYYFSPSTKSWDEARMFCQENYSHLVIINSFAEHNFVAKAHGSPRVYWLGLNDRAQEGDWRWLDGSPVTLSFWEPEEPNNIHDEDCATMNKGGTWNDLSCYKTTYWICERKGLNDIFEAQKIEWHE
glycan array binding signal (z-score) (Fuc(a1-2)Gal): -0.2
glycan array binding signal (z-score) (Fuc(a1-2)Gal(b1-3)GalNAc): -0.234
glycan array binding signal (z-score) [1]: -0.21
glycan array binding signal (z-score) [2]: -0.207
glycan array binding signal (z-score) [3]: -0.174
glycan array binding signal (z-score) [4]: -0.003
glycan array binding signal (z-score) [5]: -0.229
glycan array binding signal (z-score) (Fuc(a1-2)Gal(b1-3)GlcNAc): -0.234
glycan array binding signal (z-score) [6]: 0.119
glycan array binding signal (z-score) [7]: -0.241
glycan array binding signal (z-score) [8]: -0.239
glycan array binding signal (z-score) [9]: 0.157
glycan array binding signal (z-score) [10]: -0.104
glycan array binding signal (z-score) [11]: -0.034
glycan array binding signal (z-score) [12]: -0.218
glycan array binding signal (z-score) (Fuc(a1-2)Gal(b1-4)Glc): -0.226
glycan array binding signal (z-score) (Fuc(a1-2)Gal(b1-4)Glc6S): -0.241
glycan array binding signal (z-score) (Fuc(a1-2)Gal(b1-4)GlcNAc): -0.167
glycan array binding signal (z-score) [13]: 0.032
glycan array binding signal (z-score) [14]: -0.191
glycan array binding signal (z-score) [15]: -0.23
glycan array binding signal (z-score) [16]: -0.23
glycan array binding signal (z-score) [17]: -0.237
glycan array binding signal (z-score) [18]: 0.421
glycan array binding signal (z-score) [19]: -0.127
glycan array binding signal (z-score) [20]: 2.11
glycan array binding signal (z-score) [21]: 4.81
glycan array binding signal (z-score) (Fuc(a1-2)Gal6S(b1-4)Glc): -0.224
glycan array binding signal (z-score) [22]: -0.208
glycan array binding signal (z-score) [23]: -0.214
glycan array binding signal (z-score) (Fuc(a1-2)[Gal(a1-3)]Gal): -0.231
glycan array binding signal (z-score) [24]: -0.199
glycan array binding signal (z-score) [25]: -0.025
glycan array binding signal (z-score) [26]: -0.246
glycan array binding signal (z-score) [27]: -0.244
glycan array binding signal (z-score) [28]: -0.174
glycan array binding signal (z-score) [29]: -0.207
glycan array binding signal (z-score) [30]: -0.193
glycan array binding signal (z-score) [31]: -0.21
glycan array binding signal (z-score) [32]: -0.242
glycan array binding signal (z-score) [33]: -0.255
glycan array binding signal (z-score) [34]: -0.143
glycan array binding signal (z-score) [35]: -0.246
glycan array binding signal (z-score) [36]: -0.225
glycan array binding signal (z-score) [37]: -0.236
glycan array binding signal (z-score) [38]: -0.256
glycan array binding signal (z-score) [39]: -0.218
glycan array binding signal (z-score) [40]: 5.5
glycan array binding signal (z-score) [41]: -0.177
glycan array binding signal (z-score) [42]: -0.215
glycan array binding signal (z-score) (Fuc(a1-3)GlcNAc): -0.163
glycan array binding signal (z-score) [43]: 0.111
glycan array binding signal (z-score) [44]: -0.051
glycan array binding signal (z-score) [45]: 4.09
glycan array binding signal (z-score) [46]: 0.953
glycan array binding signal (z-score) [47]: -0.221
glycan array binding signal (z-score) [48]: 0.526
glycan array binding signal (z-score) [49]: 4.47
glycan array binding signal (z-score) [50]: -0.219
glycan array binding signal (z-score) [51]: -0.066
